The supplement of paper PMC3334620
The full ranking holds about 33,000 sequences; the median of “E-score (-0.5 to 0.5)” is about -0.035, and the highest 2% start at about 0.34. Some of the results follow.

molecular target: T1, Mot3 (UniProt P54785); assay: PBM E-score (8-mer binding enrichment) (E-score (-0.5 to 0.5)); higher = stronger / more preferred TF binding; most listed sequences are background and not binding sites; conditions: protein concentration: 200 nM; construct: GST-full length
T1 sequence: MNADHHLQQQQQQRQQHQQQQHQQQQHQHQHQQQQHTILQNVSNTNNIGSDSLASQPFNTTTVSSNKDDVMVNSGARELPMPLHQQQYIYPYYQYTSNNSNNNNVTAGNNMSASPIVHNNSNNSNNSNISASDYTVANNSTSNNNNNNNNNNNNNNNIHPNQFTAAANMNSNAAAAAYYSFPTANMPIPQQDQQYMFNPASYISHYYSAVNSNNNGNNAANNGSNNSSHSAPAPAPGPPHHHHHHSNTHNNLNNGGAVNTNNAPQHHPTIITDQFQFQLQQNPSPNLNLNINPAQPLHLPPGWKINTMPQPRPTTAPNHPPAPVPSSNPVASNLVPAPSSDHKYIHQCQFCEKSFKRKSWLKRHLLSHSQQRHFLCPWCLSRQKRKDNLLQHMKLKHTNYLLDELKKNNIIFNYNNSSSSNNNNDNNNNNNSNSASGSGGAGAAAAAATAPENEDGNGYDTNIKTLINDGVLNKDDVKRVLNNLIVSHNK
In short: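 Universal all-10-mer Agilent arrays, fresh or stripped once, were converted to double-stranded form by primer extension. GST-tagged yeast transcription factors from PURExpress in vitro transcription/translation, full-length or DNA-binding domain only, were applied at about 100-200 nM and detected with fluorescent anti-GST. After masliner normalisation, the Universal PBM Analysis Suite scored each ungapped eight-base word together with its reverse complement by E-score.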

| Sequence | PBM E-score |
| --- | --- |
| TAAACTCA | 0.0852 |
| AGCCACAC | -0.161 |
| AAACTCAT | 0.0282 |
| CGCAGATC | -0.158 |
| CGACTACG | -0.0338 |
| CTGATACA | 0.0291 |
| CATGAGCA | -0.121 |
| AAGTCTCC | -0.0176 |
| CAATTGTG | -0.0094 |
| ATACCGTC | -0.0241 |
| CTAGACTC | -0.37 |
| ATGCATGA | 0.0899 |
| AAGCCTAA | 0.129 |
| AACACCGA | 0.0814 |
| AAGGGGTA | -0.053 |
| AGGTGCAT | 0.0335 |
| CAGCTGTC | -0.0706 |
| GCTACCAC | -0.216 |
| TGCGTGAA | 0.23 |
| CGAAACAG | -0.182 |
| AACTCTCC | -0.163 |
| AGACATGC | 0.0904 |
| CGCTATGA | 0.0422 |
| ATGCTAGG | 0.0854 |
| AGTCGGAT | -0.141 |

| Sequence | PBM E-score |
| --- | --- |
| AGTAGTTA | 0.105 |
| GTAAAACA | 0.29 |
| CTCGAGAA | 0.0391 |
| CGGCATCA | -0.0726 |
| GCTGGTAA | -0.112 |
| AGAGGTAG | 0.0368 |
| TATAAAAA | 0.249 |
| CAATGAGC | -0.234 |
| AAGTCATT | -0.0638 |
| CGAGCCCA | -0.188 |
| AGTCGCCC | -0.278 |
| ACCGCTAC | -0.303 |
| CGGCGTCC | -0.218 |
| TGATCCAA | -0.071 |
| AATGACGT | 0.0289 |
| CATCCGCG | 0.0938 |
| ATAGCTAT | -0.0712 |
| AAGTACTA | 0.185 |
| AAGTGGCC | -0.114 |
| ATTGCGTA | 0.217 |
| CTTGAAGA | -0.116 |
| ACAGCTTA | 0.0818 |
| ATAAGGAT | 0.168 |
| CGTAATGA | 0.25 |
| TAATATGA | 0.036 |

| Sequence | PBM E-score |
| --- | --- |
| CGAGGGTA | -0.213 |
| ACTATACA | 0.124 |
| AGAGATGA | -0.128 |
| AGCAGAAA | -0.06 |
| ATGCTCAG | 0.15 |
| CATTAGCG | -0.278 |
| AGCGCATG | -0.0299 |
| CTCAATAC | 0.0854 |
| GTTCATGA | 0.103 |
| ATGAAGCA | -0.00353 |
| ACTTTGAC | 0.127 |
| TAGTCCCA | -0.21 |
| ACTAGAAA | 0.122 |
| AACCCAAC | -0.0432 |
| GATTCCTA | 0.0242 |
| TACGAGCA | -0.0744 |
| CGCTACCA | -0.19 |
| AAACGAAC | 0.153 |
| GGAGATGA | 0.109 |
| GGTGATGA | -0.179 |
| CAACACCA | 0.123 |
| AACCAGCG | -0.132 |
| AGGGATAC | -0.0692 |
| CATTTTGC | -0.0152 |
| CATCAACC | 0.0442 |

| Sequence | PBM E-score |
| --- | --- |
| GGTCAACA | 0.103 |
| ACAAACAC | 0.156 |
| GTTGCTGA | 0.0332 |
| CCTTTTCC | 0.155 |
| CATATGTA | 0.318 |
| ATAGAGCA | 0.0372 |
| GTCAGGTA | 0.221 |
| GTATGTGA | 0.0776 |
| CGTAAACA | 0.292 |
| CTGTCCTC | -0.252 |
| GACGTAGC | -0.144 |
| ACGCTACG | 0.109 |
| CTTCATTA | 0.0663 |
| ATATTCTA | 0.0937 |
| CTACTTCC | -0.0353 |
| TAGTGATA | -0.0575 |
| CGAGGTAC | -0.172 |
| AAATGGGC | -0.0266 |
| GGACCAAC | 0.0293 |
| CGACATGA | 0.269 |
| TAGCTTCA | -0.181 |
| AGCTGACG | -0.164 |
| GTGCATTA | 0.255 |
| GCAGCCTA | -0.0663 |
| TGTATACA | 0.332 |

| Sequence | PBM E-score |
| --- | --- |
| CGAATCCA | -0.0729 |
| ATTTAAGC | 0.0721 |
| AACATCGG | 0.0858 |
| AATAAGGG | 0.0357 |
| CTATCCAA | -0.169 |
| ACACCCAG | 0.148 |
| TCCCTTCA | -0.168 |
| AAACATTG | 0.152 |
| AGTAATTC | 0.203 |
| AGTCGAGC | -0.18 |
| AGAGAATA | -0.0675 |
| GGCACCTA | 0.357 |
| AGCATCTA | 0.0253 |
| CACATCGG | -0.129 |
| AAAGTACA | 0.184 |
| ACTTTGAT | -0.0322 |
| GAGTGTTA | 0.125 |
| GGTGCTGA | -0.127 |
| AAAAATAG | 0.13 |
| AATGGTAC | -0.0386 |
| AGCCGTCC | -0.252 |
| ACATCCAC | 0.0696 |
| CTATGCGC | -0.069 |
| AGCTCCTA | -0.0687 |
| TCTCGCAA | -0.213 |

| Sequence | PBM E-score |
| --- | --- |
| GAGCATCA | -0.269 |
| GAGGGCTA | -0.288 |
| TCTGATCA | -0.153 |
| AGTAAGCA | -0.0219 |
| CAACCTTC | 0.0205 |
| GCTTTTCC | -0.0299 |
| AGCCCACT | -0.263 |
| ACCCGATA | -0.16 |
| CGGCGCGA | -0.0328 |
| CCACACAA | 0.11 |
| CGTGGTGA | -0.162 |
| ACTAGCAA | 0.0199 |
| CATCCAGA | -0.215 |
| GTCGTAGA | -0.0498 |
| AGCCCCCT | -0.311 |
| GCTGGTAC | -0.124 |
| CCACGCCA | 0.0519 |
| CTTGTAGC | 0.0944 |
| ACGCGGAC | 0.113 |
| GGCACTAA | 0.339 |
| CGGCAAGA | -0.115 |
| ACGGTGCT | -0.255 |
| CCGGGTCG | -0.102 |
| CGACGCGA | -0.113 |
| GGCTCAGA | -0.0655 |

| Sequence | PBM E-score |
| --- | --- |
| GGCATCCC | -0.0611 |
| ACCGGATG | -0.129 |
| AGGATGAT | 0.0239 |
| CAGTCGCG | -0.209 |
| GGACACAA | 0.0871 |
| CCTACCAC | 0.104 |
| ATAGCGGG | -0.113 |
| CATCATAG | -0.056 |
| GGATGTCA | 0.136 |
| CCGTGAGA | -0.219 |
| CTCTGCTA | -0.266 |
| ACGCAGTA | 0.0934 |
| ATCTTGCG | -0.27 |
| ATGCTCAA | -0.152 |
| CACGTTTC | 0.22 |
| ATCACTGG | -0.0561 |
| GTGTTAAC | 0.352 |
| TCGTAGCA | -0.0339 |
| CGCCCACC | -0.177 |
| TATAGTGA | -0.156 |
| ACTTAAAT | 0.0718 |
| ACTGTAAG | 0.0605 |
